For assay [1], the target named is T1, RecG DNA helicase, wildtype (E. coli, UniProt P24230 1-693).
T1 construct: RecG DNA helicase, E. coli, expressed from overexpression plasmid pEAW111; No tag is mentioned; also called WT RecG; source: E. coli STL2669/pT7pol26 with pEAW111, purified (ammonium sulfate, DEAE, Source 15Q, Source 15S)
T1 sequence (looked up): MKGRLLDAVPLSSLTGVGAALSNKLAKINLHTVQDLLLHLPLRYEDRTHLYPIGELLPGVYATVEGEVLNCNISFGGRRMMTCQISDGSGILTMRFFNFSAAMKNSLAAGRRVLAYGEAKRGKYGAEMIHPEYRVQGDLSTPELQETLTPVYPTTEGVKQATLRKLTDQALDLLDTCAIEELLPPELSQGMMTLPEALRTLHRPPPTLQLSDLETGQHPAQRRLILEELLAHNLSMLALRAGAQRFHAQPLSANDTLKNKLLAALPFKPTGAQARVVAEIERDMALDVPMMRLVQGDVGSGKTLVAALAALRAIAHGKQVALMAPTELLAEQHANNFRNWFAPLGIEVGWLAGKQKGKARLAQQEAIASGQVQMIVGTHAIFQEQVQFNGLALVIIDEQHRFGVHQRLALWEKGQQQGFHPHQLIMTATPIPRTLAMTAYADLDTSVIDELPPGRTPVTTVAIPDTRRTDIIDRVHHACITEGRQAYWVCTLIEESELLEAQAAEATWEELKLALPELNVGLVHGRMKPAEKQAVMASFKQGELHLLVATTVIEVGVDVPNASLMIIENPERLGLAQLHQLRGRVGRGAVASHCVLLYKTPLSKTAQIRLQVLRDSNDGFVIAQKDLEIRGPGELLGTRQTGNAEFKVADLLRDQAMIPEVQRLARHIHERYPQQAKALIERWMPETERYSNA
The assay can be described thus: condition: SSBΔF 335 μM injected; RecG 7.41 μM in the cell; ITC; SSB proteins or unlabeled peptides injected into RecG in the cell; 20 mM Tris-HCl pH 8.0, 150 mM NaCl, 10% glycerol, 1 mM EDTA, 1 mM β-mercaptoethanol; 25°C; one-site model; concentrations as monomers; both purified.

Sequences of proteins named here, by UniProt entry; tags and fusion partners are left off. A change or cut given only in a name is not applied to a line headed by its entry.
UniProt P0AGE0: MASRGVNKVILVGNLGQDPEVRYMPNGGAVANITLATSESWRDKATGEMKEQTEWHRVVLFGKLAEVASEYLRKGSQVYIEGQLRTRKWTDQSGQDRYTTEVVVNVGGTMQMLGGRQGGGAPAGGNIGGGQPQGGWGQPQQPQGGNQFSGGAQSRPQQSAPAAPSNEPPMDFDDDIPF

Assay [2] has as its target T2, RecG R474E (E. coli, UniProt P24230 1-693, R474E).
T2 construct: RecG DNA helicase, E. coli, R474E introduced into pEAW111 to give pNJB3; also called Arg474Glu RecG variant; source: E. coli STL2669/pT7pol26 with pNJB3, purified (same scheme as wildtype RecG)
T2 sequence (looked up): T1 sequence (looked up) with R474E
The assay can be described thus: condition: SSB 263 μM injected; RecG R474E 12.9 μM in the cell; ITC; SSB proteins or unlabeled peptides injected into RecG in the cell; 20 mM Tris-HCl pH 8.0, 150 mM NaCl, 10% glycerol, 1 mM EDTA, 1 mM β-mercaptoethanol; 25°C; one-site model; concentrations as monomers; both purified.

Compound in assay [3]: SSB Gal4 hybrid (E. coli) (UniProt P0AGE0)
The assay can be described thus: two-hybrid; Gal4 DNA-binding domain (pGBD) and activation domain (pGAD) fusions in S. cerevisiae pJ69-4a; growth on SD His- and Ade-deficient plates, 30°C, 4-5 days.

The target of assay [4] is T3, SSB-Ct peptide, 6-FAM labelled (E. coli).
T3 sequence (peptide, 6-FAM label on the N-terminus): WMDFDDDIPF
The assay can be described thus: fluorescence polarisation; RecG titrated against 10 nM 6-FAM peptide; 0.2 M potassium glutamate, 1 mM DTT, 0.1 μg/ml BSA, 1x RecA buffer (25 mM Tris-acetate pH 7.6, 5% glycerol, 10 mM magnesium acetate); 30 min at room temperature, read at 25°C; one site binding model, triplicate; both purified.

Assay [5] deals with T2, RecG R474E. The assay can be described thus: condition: SSB-Ct peptide 308 μM injected; RecG R474E 12.9 μM in the cell; ITC; SSB proteins or unlabeled peptides injected into RecG in the cell; 20 mM Tris-HCl pH 8.0, 150 mM NaCl, 10% glycerol, 1 mM EDTA, 1 mM β-mercaptoethanol; 25°C; one-site model; concentrations as monomers; both purified.

Five molecules from paper PMC10164576, “Interaction with the carboxy-terminal tip of SSB is critical for RecG function in E. coli” (Nucleic Acids Research, 2023) can be followed below.

Positions count from the first letter of the chain named. Numbers in names are those of the source. No constants are given. Whether binding was seen depends on the method and setting. Some results given as binding are weak or reduced against the parent protein; the word gives no strength.

As to “SSBΔF protein variant (from UniProt P0AGE0 1-177)”, the binding result in assay [1] is “no binding”.
As to “single-stranded DNA-binding protein (SSB), full-length wildtype (from UniProt P0AGE0 1-178)”, in the assay with RecG R474E [2], the binding result is listed as “no binding”.

B1: RecG Gal4 hybrid, wildtype (enzyme, UniProt P24230 1-693)
chain: T1 sequence (looked up)
On to B1, for which the binding result in assay [3] is given as “binds”.

B2: RecG R474E (enzyme, UniProt P24230 1-693)
chain: T1 sequence (looked up) with R474E
For the molecule B2, the binding entry in assay [4] is recorded as “no binding (tested: >30 μM)”.

B3: SSB-Ct peptide, unlabeled (peptide)
peptide: WMDFDDDIPF
notes: N-terminal tryptophan residue added for quantification; C-terminal tip of SSB, E. coli; source: synthetic peptide (Genscript)
Regarding B3, the binding entry with RecG R474E [5] is reported as “no binding”.
